We go through 34 molecules from the supplement of paper PMC6609913.

Counter-ions that a name gives are not always drawn. ± gives the standard deviation of the averaged measurements. Over roughly 1,300 compounds, “normalised cell viability” has its median near 1; the lowest 2% begin near 0.14. The list shows a part of the results.

The test system of this test is V-C8 (BRCA2-deficient hamster cells). Briefly: normalised cell viability (fraction of plate median); higher = more viable cells (less toxic). Conditions: 5 µM. The procedure, abridged:
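Library drugs, held as 10 mM stocks in DMSO, were diluted to 5 μM in 100 μl medium and added to 96-well plates of V-C8 hamster cells, either lacking BRCA2 or with BRCA2 restored, 24 h after seeding. Plates ran for 3 days (screen 1) or 6 days (screen 2), alongside solvent-only wells. Viability came from a resazurin readout, median-plate normalised, as the mean of triplicate wells.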

With `CCCOc1ccc2[nH]c(NC(=O)OC)nc2c1` [Oxibendazol], the normalised cell viability runs as follows: (treatment time: 3 days) 0.185 ± 0.0067; (treatment time: 6 days) 0.183 ± 0.0049.

For the molecule `Cc1[nH]cnc1CN1CCc2c(c3ccccc3n2C)C1=O` [Alosetron hydrochloride], the normalised cell viability by setting is: (treatment time: 3 days) 1.1 ± 0.028; (treatment time: 6 days) 1.09 ± 0.014.

Turning to `O=C1NCC2(CCN(CCc3ccccc3)CC2)O1` [Fenspiride hydrochloride], the normalised cell viability stood at 1.04 ± 0.069 (treatment time: 3 days) and 1.01 ± 0.018 (treatment time: 6 days).

As for `Clc1ccc2c(c1)CCc1cccnc1C2=C1CCNCC1` [Desloratadine], the normalised cell viability worked out at 0.412 ± 0.03 (treatment time: 3 days) and 0.256 ± 0.019 (treatment time: 6 days).

With `CN(CCCN1c2ccccc2CCc2ccccc21)CC(=O)c1ccc(Cl)cc1` [Lofepramine], the normalised cell viability is, setting by setting: (treatment time: 3 days) 1.05 ± 0.11; (treatment time: 6 days) 1.04 ± 0.075.

Turning to `CN(C)CCOC(c1ccccc1)c1ccccc1.Cn1c(=O)c2[nH]c(Cl)nc2n(C)c1=O` [Dimenhydrinate], the normalised cell viability runs as follows: (treatment time: 3 days) 1.08 ± 0.086; (treatment time: 6 days) 1.04 ± 0.024.

Turning to `CC(=O)O[C@]1(C(C)=O)CC[C@H]2[C@@H]3C=C(Cl)C4=CC(=O)CC[C@]4(C)[C@H]3CC[C@@]21C` [Chlormadinone acetate], the normalised cell viability stood at 0.998 ± 0.06 (treatment time: 3 days) and 0.983 ± 0.043 (treatment time: 6 days).

In turn, `CCCNC(=O)NS(=O)(=O)c1ccc(Cl)cc1` [Chlorpropamide] registered a normalised cell viability (treatment time: 3 days) of 1.02 ± 0.036 and a normalised cell viability (treatment time: 6 days) of 1.07 ± 0.072.

For the molecule `CCN(CC)C(C)CN1c2ccccc2Sc2ccccc21` (stereo not drawn) [Ethopropazine hydrochloride], the normalised cell viability turned out to be 1.19 ± 0.26 (treatment time: 3 days) and 0.923 ± 0.041 (treatment time: 6 days).

Regarding `Cc1cc(O)c(C(=O)N[C@@H](C(=O)N[C@@H]2C(=O)N3C(C(=O)O)=C(CSc4nnnn4C)CS[C@H]23)c2ccc(O)cc2)cn1` [Cefpiramide], the normalised cell viability reads like this: (treatment time: 3 days) 1.03 ± 0.074; (treatment time: 6 days) 1.09 ± 0.07.

Consider `CO[C@H]1/C=C/O[C@@]2(C)Oc3c(C)c(O)c4c(O)c(c5c(nc6cc(C)ccn65)c4c3C2=O)NC(=O)/C(C)=C\C=C\[C@H](C)[C@H](O)[C@@H](C)[C@@H](O)[C@@H](C)[C@H](OC(C)=O)[C@@H]1C` [Rifaximin], for which the normalised cell viability (treatment time: 3 days) stood at 0.964 ± 0.023 and the normalised cell viability (treatment time: 6 days) is 0.928 ± 0.017.

The molecule `O=C1[C@H]2CCCC[C@H]2C(=O)N1CCCCN1CCN(c2nsc3ccccc23)CC1` [Perospirone] came in with a normalised cell viability (treatment time: 3 days) of 0.978 ± 0.057 and a normalised cell viability (treatment time: 6 days) of 0.9647 ± 0.0093.

As to `Clc1cccc(Cl)c1NC1=NCCN1` [Clonidine hydrochloride], the normalised cell viability runs as follows: (treatment time: 3 days) 0.956 ± 0.05; (treatment time: 6 days) 1 ± 0.069.

For the molecule `Nc1nc2c(ncn2COC(CO)CO)c(=O)[nH]1` [Ganciclovir], the normalised cell viability is, setting by setting: (treatment time: 3 days) 1.06 ± 0.015; (treatment time: 6 days) 1 ± 0.052.

For `CC=CC(=O)N(CC)c1ccccc1C` [Crotamiton], the normalised cell viability reads like this: (treatment time: 3 days) 0.866 ± 0.12; (treatment time: 6 days) 0.929 ± 0.025.

The molecule `CNCCc1ccccn1` [Betahistine mesylate] had a normalised cell viability (treatment time: 3 days) of 0.99 ± 0.031 and a normalised cell viability (treatment time: 6 days) of 1.11 ± 0.052.

`NCCCCCC(=O)O` [Aminocaproic acid] showed a normalised cell viability (treatment time: 3 days) of 0.927 ± 0.023 and a normalised cell viability (treatment time: 6 days) of 1.07 ± 0.17.

Turning to `CN(C)C(=N)NC(=N)N` [Metformin hydrochloride], the normalised cell viability was determined as 1.03 ± 0.043 (treatment time: 3 days) and 1.02 ± 0.019 (treatment time: 6 days).

As for `CCOC(=O)/C=C(C)/C=C/C=C(C)/C=C/c1c(C)cc(OC)c(C)c1C` [Etretinate], the normalised cell viability (treatment time: 3 days) is 1.01 ± 0.027 and the normalised cell viability (treatment time: 6 days) worked out at 1.1 ± 0.073.

Consider `NC[C@H]1O[C@H](O[C@H]2[C@H](O)[C@@H](O[C@H]3O[C@H](CO)[C@@H](O)[C@H](N)[C@H]3O)[C@H](N)C[C@@H]2N)[C@H](N)C[C@@H]1O` [Tobramycin], for which the normalised cell viability was 0.949 ± 0.028 (treatment time: 3 days) and 1.04 ± 0.026 (treatment time: 6 days).

For the molecule `C=CCOc1ccccc1OCC(O)CNC(C)C` (stereo not drawn) [Oxprenolol hydrochloride], the normalised cell viability is, setting by setting: (treatment time: 3 days) 1.04 ± 0.034; (treatment time: 6 days) 1.07 ± 0.036.

Consider `Cc1c(N)c(=O)n(-c2ccccc2)n1C` [Ampyrone], for which the normalised cell viability reads like this: (treatment time: 3 days) 1.01 ± 0.12; (treatment time: 6 days) 1.06 ± 0.055.

In turn, `CCN(CC)CCOCCOC(=O)C1(c2ccccc2)CCCC1` [Carbetapentane citrate] showed a normalised cell viability (treatment time: 3 days) of 0.163 ± 0.0053 and a normalised cell viability (treatment time: 6 days) of 0.143 ± 0.011.

Regarding `Cc1cc(C(C)(C)C)cc(C)c1CC1=NCCN1` [Xylometazoline hydrochloride], the normalised cell viability (treatment time: 3 days) was 0.945 ± 0.042 and the normalised cell viability (treatment time: 6 days) came to 1.06 ± 0.046.

Regarding `CCN(CC)C(=O)C1(c2ccccc2)CC1CN` (stereo not drawn) [Milnacipran hydrochloride], the normalised cell viability by setting is: (treatment time: 3 days) 0.95 ± 0.089; (treatment time: 6 days) 1 ± 0.082.

`CCN(CCCCOC(=O)c1ccc(OC)c(OC)c1)C(C)Cc1ccc(OC)cc1` (stereo not drawn) [Mebeverine hydrochloride] returned a normalised cell viability (treatment time: 3 days) of 0.997 ± 0.071 and a normalised cell viability (treatment time: 6 days) of 0.978 ± 0.22.

Consider `O=P(O)(O)C(O)(Cn1ccnc1)P(=O)(O)O` [Zoledronic acid hydrate], for which the normalised cell viability is, setting by setting: (treatment time: 3 days) 1.08 ± 0.077; (treatment time: 6 days) 1.02 ± 0.031.

In the case of `COc1cc2nc(N3CCN(C(=O)C4COc5ccccc5O4)CC3)nc(N)c2cc1OC` (stereo not drawn) [Doxazosin mesylate], the normalised cell viability is 0.953 ± 0.014 (treatment time: 3 days) and 0.855 ± 0.12 (treatment time: 6 days).

For the molecule `CCN(CC)C(=O)Nc1ccc(OCC(O)CNC(C)(C)C)c(C(C)=O)c1` (stereo not drawn) [Celiprolol HCl], the normalised cell viability was determined as 1.13 ± 0.12 (treatment time: 3 days) and 0.988 ± 0.031 (treatment time: 6 days).

In turn, `N[C@H]1CONC1=O` [(S)-(-)-Cycloserine] came in with a normalised cell viability (treatment time: 3 days) of 1.07 ± 0.062 and a normalised cell viability (treatment time: 6 days) of 0.992 ± 0.019.

With `CCCCC1C(=O)N(c2ccccc2)N(c2ccc(O)cc2)C1=O` (stereo not drawn) [Oxyphenbutazone], the normalised cell viability stood at 0.941 ± 0.097 (treatment time: 3 days) and 0.982 ± 0.061 (treatment time: 6 days).

As for `CCCOc1ccccc1-c1nc2[nH]nnc2c(=O)[nH]1` [Zaprinast], the normalised cell viability by setting is: (treatment time: 3 days) 1.15 ± 0.029; (treatment time: 6 days) 0.98 ± 0.025.

As to `CC#C[C@]1(O)CC[C@H]2[C@@H]3CCC4=CC(=O)CCC4=C3[C@@H](c3ccc(N(C)C)cc3)C[C@@]21C` [Mifepristone], the normalised cell viability reads like this: (treatment time: 3 days) 0.999 ± 0.055; (treatment time: 6 days) 0.895 ± 0.037.

As to `COc1ccc(Cl)cc1C(=O)NCCc1ccc(S(=O)(=O)NC(=O)NC2CCCCC2)cc1` [Glibenclamide], the normalised cell viability was 0.945 ± 0.13 (treatment time: 3 days) and 0.891 ± 0.056 (treatment time: 6 days).
